# Results from the supplement of paper PMC10126150.
# Sequences with one replicate were seen in a single cluster, so their values are uncertain.
# Test system: ATP
# Experiment: switch fluorescence ratio, 500 uM ATP over buffer (Cy3 cluster intensity, sum of 5 cycles each) (fold (ratio)); higher = stronger signal-on switching upon ATP binding; sequences stand for … in TCGTCGGCAGCGTCAGATGTGTATAAGAGACAGTTTTTTTTTTTTTTTTTTTTTTTTT…TC
# Details: aptamer strand: ATP DNA aptamer (quencher-CACCTGGGGGAGTATTGCGGAGGAAGG + anchor), 100 nM annealed; ATP concentration: 500 uM; one replicate
# Outline: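 Exposure to 500 uM ATP lasted 15 min at 22 °C before imaging, and a selection-buffer image was taken beforehand, for Cy3-labelled switching-strand clusters on a modified Illumina MiSeq flow-cell annealed to 100 nM quencher-labelled ATP aptamer. Five buffer/ATP cycles were run with NaOH stripping and re-annealing between them. The fluorescence ratio per cluster is summed target-cycle over summed buffer-cycle Cy3 intensity, averaged per switch-domain sequence. Clusters outside 100-1000 RFU were excluded.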
row,Sequence,switch fluorescence ratio
1,ACAATTAGCA,1.07
2,ATCGCTAACA,0.998
3,ATGCTAGGCA,0.975
4,GGAGTATGTT,0.962
5,ATACGACTTG,0.99
6,TGCTTGATAG,0.982
7,AATTTGTAA,0.969
8,CCTAATGAGT,0.989
9,CCGAGGATTG,1.02
10,CTGTGGGATA,3.12
11,CAGAGTTGAG,0.957
12,GCCCCGCTAA,1.58
13,AGCTTTGTAA,0.996
14,GATGGCATT,1.45
15,CGTTTCCAAG,0.977
16,AGTATATCCC,0.993
17,GACACCTTCT,1.5
18,CTTATATGTC,1.08
19,AACGTCCATC,1
20,GCTCAAAATG,1.05
21,TTGTGGCCAC,0.983
22,CAAGGAACTT,1.03
23,CGGGCAGAAG,0.975
24,AACGCCTATG,0.992
25,GATATTTCAC,1.03
26,CGGACAGTAT,1.02

row,Sequence,switch fluorescence ratio
1,GTTTATCTGG,0.97
2,TGGTCCATGT,0.96
3,GGATCAGGCC,0.958
4,CCTTCGGAGC,4.32
5,TGAAGCTTAA,1.12
6,TGCGGTGTTA,0.97
7,GTGCTGGGAT,1.04
8,TGCTTGAAGT,1.02
9,AGCTGCCCCG,1.16
10,ATAATGAAAC,1.05
11,GCAAGGTTGG,0.978
12,AAGCGATTTG,1.03
13,ACTGGTGGCG,0.998
14,ACTGAGTACG,1.18
15,ACTACGATTG,1.04
16,AGGCGCACG,0.981
17,CCGGAACGCT,1.26
18,TAAAAGTCTG,1.04
19,GATGCGCGGC,1.02
20,CAGAGGGATG,1.01
21,GGGGCGTGTC,0.971
22,GTGGTACATT,0.988
23,CCCGGCTAGT,1.09
24,TCGAGGGTCG,0.999
25,GGAGGCTTTT,0.984
26,AACCTTTGCC,1.67

row,Sequence,switch fluorescence ratio
1,GATGTTTTCC,1.01
2,AATTCTAAGG,1.02
3,CGGCGGAAGA,1.01
4,CACAGCTAAG,1.09
5,TGCCATAAGC,0.959
6,AGCTAATC,1.1
7,GTTCTAACGC,1.05
8,CCCTCAGAAG,1.1
9,ATTGGAGAAA,0.99
10,GGTGCAACTA,0.991
11,GATCGCCTGT,1.01
12,ATAAAGGCG,1.16
13,GTGATTTACA,1.03
14,TCTTAACATT,1.02
15,TTTGAATCGT,0.962
16,GATTGAACAT,0.99
17,CTTTCTTAAC,1.26
18,GGGAAAAGCT,1.02
19,CATCCAATA,1.7
20,GGAAGGTTGT,0.983
21,GGATTGACAG,1.02
22,GCCCTGAGGT,1.04
23,GTTCTTTTGC,0.925
24,GTAAGACCAG,0.931
25,GCTAGAGGCG,1.01
26,GAATTGGTGG,0.974

row,Sequence,switch fluorescence ratio
1,TGAGAGGCCT,1.02
2,AAAGTGGACG,1.08
3,CCTTTTTCAT,1.01
4,AATTGCCCTG,0.98
5,AGCACTAGGA,1.05
6,CCCTGGAGGC,1.06
7,TTCACGCCG,1.09
8,AAGTCCAAAC,0.964
9,TATATACGGA,1.05
10,TCGGTCCTAT,1.01
11,TGCTCTCTGT,0.974
12,ATCCTGCCAC,1.28
13,ATTAATTTAC,1.06
14,TTGGTGCTT,1.03
15,CAGCTAAACG,1.09
16,AGCGACAAAC,1.28
17,TAAATCGG,0.976
18,TATGGGGCCA,0.961
19,ACAGTCTTTC,0.959
20,GAACCAGCCA,1.07
21,TGGCCCATCT,0.994
22,ATTTGCTCAC,1.06
23,CACGAGAGTA,1.04
24,AATTAGCGCG,0.993
25,AAGATCGTAA,1.01
26,TCAATCGTTA,1.02

row,Sequence,switch fluorescence ratio
1,AACCTGAGT,1.21
2,TAGTGAAGGA,1.03
3,TCCATTCTCG,1.04
4,TTACCTGGTA,1.03
5,TGCAGCGCAT,1.32
6,GCAAATTAAG,1.04
7,TGCCGATCAT,1.01
8,TAAGGTATCA,0.997
9,GTGATGACCG,0.994
10,GGCCAATCCG,1.09
11,CTTTCCCTGT,0.991
12,ACATAAGTTA,1.04
13,TCATCATGTG,1.03
14,TCTCGGGTCG,1.05
15,CAGGCAAAGG,1.01
16,GTAGATGCAA,1.01
17,GCGCGGTCGA,0.991
18,ATGCCTGGGA,0.993
19,CAGATCGTGT,1
20,CTCAGCTGAA,1.03
21,GGGAAGTAAT,1
22,TAATAAGGGA,1.02
23,GCCGTTAAGA,1.01
24,TACTTGCATG,1.03
25,CGTTATAGAT,1.03
26,TTATTCACAA,1.03

row,Sequence,switch fluorescence ratio
1,ACTTGATTCT,1
2,CTTTCTTAGT,1.04
3,TCAGCTTGGT,1.02
4,TTGATCGTTT,0.957
5,GATCATCAAC,1.01
6,CATCTTGCAC,1.37
7,GCGGACTAGG,0.967
8,GGAAAGTCTG,1.01
9,GTGAGACTTT,1.01
10,AAGAGTCGCA,0.977
11,GATTTCAAAA,0.913
12,AGATAATGAT,0.979
13,CGTTGAACGT,0.929
14,ACGGATCCGA,1.04
15,CTTACTTGGT,1.01
16,GTTAACTCCG,1.18
17,AACTTGTTAT,0.989
18,AGAGAAGGCA,1.03
19,CGGCGTTTAG,0.961
20,TGTTTCGAAC,0.997
21,TCATCCGCCG,1.56
22,GTTACATTAC,1.46
23,GGTGTAAAGG,1
